Measurements from the supplement of paper PMC3334620.
Over roughly 33,000 sequences, “E-score (-0.5 to 0.5)” has its median near -0.017; the highest 2% begin near 0.3. This is one part of the list.

Each sequence was assayed against T1, Sut1 (UniProt P53032) (assay: PBM E-score (8-mer binding enrichment) (E-score (-0.5 to 0.5)); higher = stronger / more preferred TF binding; most listed sequences are background and not binding sites). Details: protein concentration: 200 nM; construct: GST-full length.
T1 sequence: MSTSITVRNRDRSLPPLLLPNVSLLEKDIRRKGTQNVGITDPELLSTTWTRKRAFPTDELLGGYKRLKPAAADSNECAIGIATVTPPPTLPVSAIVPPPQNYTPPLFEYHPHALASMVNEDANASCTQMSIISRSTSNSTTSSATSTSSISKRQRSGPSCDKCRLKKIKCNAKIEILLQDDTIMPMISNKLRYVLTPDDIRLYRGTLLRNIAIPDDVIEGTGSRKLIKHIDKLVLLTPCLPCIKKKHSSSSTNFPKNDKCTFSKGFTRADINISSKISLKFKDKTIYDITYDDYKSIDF
Summary of the method: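 E-scores (a modified Wilcoxon-Mann-Whitney statistic) were assigned by the Universal PBM Analysis Suite to every ungapped eight-base word pooled with its reverse complement. The input came from universal all-10-mer Agilent arrays made double-stranded by primer extension and probed with GST-tagged yeast transcription factors at about 100-200 nM. Fluorescent anti-GST detected bound protein, and masliner normalised the scans.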

| Sequence | PBM E-score |
| --- | --- |
| CTTGTGGC | -0.164 |
| ATTATAAT | 0.378 |
| TAGATTAA | 0.292 |
| AGACTCTA | -0.0408 |
| CCTTCGAA | 0.0651 |
| CGAGCGTC | -0.241 |
| CCCGGCTC | -0.156 |
| ACACTAAT | 0.103 |
| CGGCTGTC | -0.14 |
| CCCCTGTA | -0.184 |
| AACAATCC | 0.183 |
| CAATCAAA | 0.0492 |
| CCTTGTAA | 0.165 |
| ATTATTGC | 0.214 |
| CCGCCCGC | -0.158 |
| GATCAGAC | -0.211 |
| AAGCCTCG | -0.0281 |
| ACACCATG | -0.203 |
| CCAAACAA | 0.122 |
| AGTTGTGA | 0.087 |
| AATACGGC | -0.0196 |
| ACGAATAC | 0.141 |

| Sequence | PBM E-score |
| --- | --- |
| GGAAACAA | 0.0824 |
| ATTCCTTC | 0.0876 |
| GAGATATA | 0.162 |
| GCAGGAGC | -0.334 |
| CACGTCGC | -0.173 |
| ATCCACAA | -0.0307 |
| ACGGCAGT | -0.0735 |
| CACACTCG | -0.121 |
| CAGCTGAC | 0.0633 |
| CTATCGGC | -0.13 |
| CGTTGTGC | -0.185 |
| AAGGCGAC | -0.202 |
| AGCGCTCG | -0.0764 |
| ACTCTGGG | -0.114 |
| TCTGACCA | 0.053 |
| CCTCGCAC | -0.132 |
| ACAACGAT | 0.113 |
| CCCTCGGA | 0.272 |
| CAGGCCGA | -0.0634 |
| CGACCCAG | -0.133 |
| CTTCTCAC | 0.0892 |
| AGCCGGCG | -0.0364 |

| Sequence | PBM E-score |
| --- | --- |
| GTAGAGCA | -0.146 |
| TCCGTAAA | 0.297 |
| ACACGACA | 0.161 |
| CGTAGCAC | 0.0497 |
| AAACGCTC | -0.0412 |
| AAATCGAC | -0.0717 |
| TCGATGCA | -0.235 |
| AATTGGGT | 0.232 |
| GAGAGATC | -0.189 |
| CTGACGTC | -0.112 |
| ATCGCCCA | -0.242 |
| TGATACCA | -0.0561 |
| AGACAAGC | -0.0684 |
| CTTCGGAC | 0.405 |
| ACAACCAC | 0.169 |
| CCACCGGA | 0.362 |
| GCGGCGAC | -0.0515 |
| ATCATTGC | -0.0909 |
| ATGGATTA | -0.139 |
| ACATGGCT | -0.139 |
| AGTTGGTG | 0.00404 |
| CCTCATAA | -0.0996 |

| Sequence | PBM E-score |
| --- | --- |
| AATCGTCC | -0.0212 |
| CCTGTCCA | -0.264 |
| CCAGTGAG | -0.0296 |
| ACAAGGCT | -0.269 |
| CTAACATC | -0.0167 |
| TACTCCGA | 0.491 |
| TACGTCGA | 0.0132 |
| CCACCGCG | 0.159 |
| CTGGGATC | -0.198 |
| GCCCGGAA | 0.244 |
| CAGAATAG | -0.0939 |
| ACGTCCTG | -0.351 |
| AAACGGAC | 0.147 |
| GAGCCTGC | -0.113 |
| CTTAAGAA | 0.22 |
| CCAGCCTC | -0.345 |
| GCGTTGGA | -0.154 |
| ATGAGCCC | -0.287 |
| CTCATTCA | 0.0887 |
| CATTATAC | 0.151 |
